In all, about 43,000 compounds went through this assay and about 200 (0.47%) were called active. Roughly 12% stayed inconclusive and do not appear here. The call rests on the fitted dose curve; in most records, active means well fitted cell-killing curve with a large enough effect; inconclusive means small, poorly fitted or top-dose-only effect, or effect the other way; inactive means flat fitted curve, though single readings scatter. Some of the results follow.
Test: Cell viability qHTS assay in S16 Pmp22-F2sN cells; further: nearly all actives have a fitted effect of over 65% in size
Details: S16 Pmp22-F2sN Schwann cells viability, CellTiter-Glo, 24 h; series mostly up to 57.5 µM; activity change, negative = cytotoxicity: at the top concentration
How it was run: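 Used to flag compounds lowering reporter output through toxicity, this quantitative HTS measures ATP-based CellTiter-Glo luminescence in S16 Pmp22-F2sN Schwann cells after 24 h compound exposure at 37C.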
On the % scale 0 is the no-effect control and ±100 the full control effect.

Structure (SMILES)	activity change, negative = cytotoxicity
CCOCCn1cnc2sc(C(=O)Nc3ccccc3C(=O)OC)c(C)c2c1=O	inactive: 28.1%
O=C(Cn1ccc2cc(S(=O)(=O)N3CCCCC3)ccc21)NCc1ccccc1Cl	inactive: -15.1%
Cn1c(=O)c2c(c3ccccc31)OC(=O)CC2c1cccc(Cl)c1 (configuration not stated)	inactive: -4.42%
Cc1ccc(-c2nc(CCNC(=O)C(=O)Nc3c(C)cccc3C)cs2)cc1	inactive: -1.54%
COc1cc(NC(=O)CN2Cc3ccccc3C2=O)cc(OC)c1OC	inactive: -2.15%
CCCN(CCC)C(=O)c1nn(C)c2c1CSc1ccc(C)cc1-2	inactive: -7.44%
CC(C)Cn1c(=O)c2ccccc2n2c(CCC(=O)Nc3ccc(F)cc3)nnc12	inactive: 9.31%
CCOc1cccc(CC(=O)N2CCc3c([nH]c4ccccc34)C2c2ccc(SC)cc2)c1OCC (configuration not stated)	inactive: 3.46%
CCOc1ccc(NC(=O)Cn2nc(Cc3ccncc3)c3ccccc3c2=O)cc1	inactive: -3.88%
COc1ccc(N2C(=O)CSC23C(=O)N(Cc2ccc(C)cc2)c2ccccc23)cc1Cl (configuration not stated)	inactive: 8.22%
COc1ccc(C)cc1NC(=O)c1nnn(-c2c(C)cccc2C)c1C	inactive: -21.7%
CC(=O)Nc1nnc2n1CCS2	inactive: -5.32%
Cc1ccc(CN2CCC(CNC(=O)Nc3ccc(C)c(C)c3)C2)cc1 (configuration not stated)	inactive: -24%
CC(C)N(C(=O)Cn1cc(SCC(=O)Nc2ccccc2C(F)(F)F)c2ccccc21)C(C)C	inactive: -0.836%
CCOc1ccc(C2C(C(=O)Nc3ccccc3C)=C(C)Nc3nnnn32)cc1 (configuration not stated)	inactive: -3.71%
COc1ccc(C)cc1NC(=O)c1oc2ccc(S(=O)(=O)N3CCC4(CC3)OCCO4)cc2c1C	inactive: 0.669%
Cc1ccc(C)c(NC(=O)/C(C#N)=C/c2ccc(C(C)C)cc2)c1	inactive: 0.0767%
Cc1nn(C(=O)c2c(F)cccc2F)c(C)c1S(=O)(=O)N1CCCCCC1	inactive: 7.35%
CCCc1nnc(NC(=O)Nc2ccccc2Cl)s1	inactive: -0.993%
CCOc1ccc(OCC)c(NC(=O)C2CCCN(S(=O)(=O)c3cc(Br)cc4c3N(C(=O)CC)CC4)C2)c1 (configuration not stated)	inactive: -0.726%
Cc1nc2nc(C)c(NS(=O)(=O)c3ccc(CC(C)C)cc3)c(=O)n2[nH]1	inactive: -0.423%
COc1ccc(NC(=O)Cn2cc(C(=O)c3ccccc3OC)c(=O)c3ccc(C)nc32)cc1OC	inactive: -2.55%
Cn1c(=O)c2c(-c3ccccc3)n(CCCO)cc2n(C)c1=O	inactive: 1.5%
CCn1c(CN2CCOCC2)nc2cc(NC(=O)c3cccc([N+](=O)[O-])c3)ccc21	inactive: 0.0389%

Structure (SMILES)	activity change, negative = cytotoxicity
O=C1CC(c2c(F)cccc2Cl)c2c(ccc3ccccc23)N1 (configuration not stated)	inactive: 2.29%
COc1cc(C2c3c(oc4ccc(F)cc4c3=O)C(=O)N2Cc2ccc3c(c2)OCO3)ccc1O (configuration not stated)	inactive: 3.57%
CCCCN(CC)C(=O)c1c[nH]c2ccc(S(=O)(=O)N(C)c3ccc(Cl)cc3)cc2c1=O	inactive: -1.06%
COC(=O)c1cccnc1-n1c(=O)c2cccnc2n(CC(=O)Nc2cccc(C)c2)c1=O	inactive: 14.9%
COc1ccc(NC(=O)Cc2c(C(=O)O)[nH]c3ccccc23)cc1OC	inactive: 5.25%
COc1ccc(CNC(=O)Cc2coc3ccc(C)cc23)cc1	inactive: -5.85%
Cc1ccc(NC(=O)c2oc3ccc(S(=O)(=O)N4CCOCC4)cc3c2C)c(C)c1	inactive: 0.83%
CCN(c1ccccc1C)S(=O)(=O)c1nnc(NC(=O)c2ccccc2C)s1	inactive: -27.3%
CC(C)Oc1ccc(CNC(=O)c2ccc3c(c2)nc2n3CCOC2)cc1	inactive: 4.18%
CCOc1ccc(C(=O)/C=C/c2cn(CC(O)CN3CCc4ccccc43)c3ccccc23)cc1 (configuration not stated)	inactive: -1.25%
Cc1cc(C)cc(N2C(=O)N(Cc3cc(=O)n4ccccc4n3)c3ccccc3S2(=O)=O)c1	inactive: -2.44%
COc1cc(OC)c(OC)cc1CN1CCc2nc(N3CCN(C)CC3)ncc2C1	inactive: 4.65%
CCc1nn(CC(=O)NCc2ccc(C)cc2)c(=O)c2cc3occc3n12	inactive: 8.22%
O=C(CCn1c(=O)c2ccccc2n(Cc2cccc(F)c2)c1=O)NCc1ccc2c(c1)OCO2	inactive: 3.76%
COc1ccc(N2CCN(c3nc4ccc(C(=O)c5ccccc5)cc4n4cnnc34)CC2)cc1	inactive: 19%
O=C(CN1C(=O)COc2ccc(S(=O)(=O)N3CCCCCC3)cc21)N1CCN(c2ccc(F)cc2)CC1	inactive: -2.42%
COc1ccc(-c2cc3nc(C)c(CCC(=O)NCCc4ccc(Cl)cc4)c(C)n3n2)c(OC)c1	inactive: -5.22%
Cc1ccc(Cn2c(=O)c3cccnc3n(Cc3ccc(C)cc3)c2=O)cc1	inactive: 13.4%
Cc1ccc(Cn2c(=O)n(-c3cccc(C(F)(F)F)c3)c(=O)c3c(C)c(C)sc32)c(C)c1	inactive: -6.9%
Cc1cn(C)c(CC(=O)Nc2cccc(C#N)c2)c1C(=O)O	inactive: 1.32%
Cc1ccc(CSc2ncc(Cl)c(C(=O)Oc3ccccc3F)n2)cc1	inactive: 6.29%
CCOC(=O)N1CCC(NC(=O)c2cnn(-c3ccc(OC)cc3)c2C2CCN(C(=O)OC(C)(C)C)CC2)CC1	inactive: -1.7%
Cc1ccccc1NC(=O)COc1ccc2oc3c(c2c1)CCCC3	inactive: -0.34%

From PubChem BioAssay AID1508642 (National Center for Advancing Translational Sciences (NCATS), 2021)
